Experimental findings from the supplement of paper PMC11417369 are described below.

± gives the standard deviation of the averaged measurements. The list shows a part of the results.

The experiment deals with PfAP2-I AP2 domain 3 (GST-tagged). The experiment is described as follows: gcPBM binding intensity (ln(normalized median fluorescence intensity)); higher = stronger DNA binding. The method in brief:
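Alexa488 anti-GST antibody, scanned at 488 nm, detected GST-tagged P. falciparum DNA-binding domains that had been expressed in E. coli and incubated for 1 h on an Agilent 4 × 180k array. The array carried primer-extended double-stranded 36-bp intergenic genomic probes and negative controls. Binding intensity is the highest Masliner-normalised natural-log median intensity across replicate spots of either orientation of each probe.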
“TATATATAAAATGTATGTACATATTTATTTATATAG [XGTACX_site657]”: the “gcPBM binding intensity (ln)” value was determined as 7.56 ± 0.2.
On to “AAGTGAAATAAAATATGTACATATATGTATATATAA [XGTACX_site4473]”, for which the “gcPBM binding intensity (ln)” value was found to be 7.75 ± 0.42.
The same measure for “TTTTTTCTTCGTGTATTAAGTCACAATAGGAAAAAA [GTGCAC_negctrl_site644]”: 8.39 ± 0.4; for “AAAAAAAAAGAATGTGAACACACACCGTGAATATAA [CACACA_site8342]”: 7.62 ± 0.71; for “TGTATTTATAGACACACACACTTTCTTTTTTTAAGA [CACACA_site7010]”: 8.06 ± 0.14.
The same measure for “AACAATTAGAACTTTGCACACTTCTATATATTTTGT [CACACA_site674]”: 9.48 ± 0.6; for “TGTATAATAAGGAAGAGTACAAGTAAATACACACAT [XGTACX_site2084]”: 8.49 ± 0.61.
Consider “TACATATATAAAAAAACACACACATATATATATATA [CACACA_site8315]”, for which the “gcPBM binding intensity (ln)” value turned out to be 9.22 ± 0.27.
The same measure for “TTTCTAAGAAAAAAAAAAAAAAAAAAAAAGATACAA [GTGCAC_negctrl_site525]”: 7.36 ± 0.66; for “ATATTTATTTTAATTTTTCTATATAAACTATTATGA [CACACA_negctrl_site739]”: 7.54 ± 0.63.
The same measure for “AGGAAGGAAATAAATCAACACACATATATTATATAT [CACACA_site8678]”: 7.67 ± 0.61; for “TATATATATTATATATGTACATATTGTATATTTTTG [XGTACX_site4564]”: 8.21 ± 0.39; for “TATGTAAAATGTGTTTGTACTTATTTATTATATAAA [XGTACX_site2816]”: 7.75 ± 0.078.
The value for “ATTATAAATATCAGTGCACACATTTCTACGCAAAGT [CACACA_site4420]” was 10.7 ± 0.4; that for “AAGGAGCCTATGAACACACACATGTACAGATATTAA [CACACA_site6107]” was 7.79 ± 0.64; that for “CAAAATTATCAGAATCGTACATTTTTAACATATAAT [XGTACX_site7909]” was 7.4 ± 0.49.
Consider “AAAACTATATTAATGTGTACACATCAAAATATTAAT [XGTACX_site6767]”, for which the “gcPBM binding intensity (ln)” value came to 8.12.
Consider “TTACAAAACACTTATACACACATATATATATATATA [CACACA_site2716]”, for which the “gcPBM binding intensity (ln)” value was found to be 9.23 ± 0.31.
The same measure for “TAATATATTAAAAATAGTACATAAGAAAAATAAGTA [XGTACX_site7957]”: 8.11 ± 0.52; for “ACAGGAAAAAACAATTGTACATGTATATATATATAT [XGTACX_site7677]”: 9.34 ± 0.16; for “ATATATATATATATATGTACATATTTTATTTGAAAT [XGTACX_site7411]”: 9.38 ± 0.4.
The same measure for “GCATAATATACTCTTACACACCATTTCTAAATACAT [CACACA_site4912]”: 8.24 ± 0.53; for AAGACAATATATGCAGTGCATATACATACATATATA: 9.81 ± 0.071.
The same measure for “AAAAAAAAAAAAAAAAGTACGTATTTTTTTTAAAAT [XGTACX_site2654]”: 8.85 ± 0.47; for “TTTTTTTTTTTTTTTTGTACGTAAAAAAATATATAC [XGTACX_site1290]”: 8.31 ± 0.37.
As for “TTGTTATATTACAGTAGTACATTTAAAATCTACTAC [XGTACX_site2620]”, the “gcPBM binding intensity (ln)” value was determined as 7.73 ± 0.48.
The same measure for “ATTTTTATTTACAACCCCAAAAAGGAAAAACATAAA [CACACA_negctrl_site1169]”: 7.87 ± 0.45.
The same measure for “AATATTTATACTATAACACACATACAGACAAAAAAA [CACACA_site6396]”: 8.06 ± 0.49; for “TTACATTATATACATACACACCCACCCACAAAAAAA [CACACA_site8187]”: 9.55 ± 0.61.
The value for “ATAATATCATCAAACGCACACATACATAAATATATT [CACACA_site5230]” was 8.46 ± 0.32.
On to “TATTTTTATAATATATGTACATATATATATATATTA [XGTACX_site5343]”, for which the “gcPBM binding intensity (ln)” value turned out to be 7.8 ± 0.21.
With “ACATATTATATGAATACACACAAAAACTTATCGGTA [CACACA_site3439]”, the “gcPBM binding intensity (ln)” value came to 7.63 ± 0.53.
The same measure for “TATTTACATTTATGTGCACACATTCCATTTGAAAGT [CACACA_site1954]”: 9.935 ± 0.021; for “CGGACATACATAGGAACATGCAAAATTTTTTATTTT [TGCATGCA_site575]”: 7.62 ± 0.61.
The same measure for “AATAGAAAAAAAAAATGTACACATATAAAAGCATAT [XGTACX_site6306]”: 7.93 ± 0.78; for “TATTTTCTTTTTCTTGTACACACATAATATGGATGA [CACACA_site8168]”: 8.15 ± 0.45; for “TTGAAAATGAAAAAATGTACTTAAAAAAAAGGAACA [XGTACX_site8664]”: 7.87 ± 0.51.
Consider “TCTTTGAATTTTTTAACACACACATGGGTGGATATA [CACACA_site8474]”, for which the “gcPBM binding intensity (ln)” value came out at 7.92 ± 0.49.
The same measure for “ATAAAATTGTATAACTGTACATATATATATATATAT [XGTACX_site5596]”: 9.43 ± 0.53.
With “CCCACAAAGGAATATACACACATATATATATATATA [CACACA_site4091]”, the “gcPBM binding intensity (ln)” value came out at 9.4 ± 0.5.
The same measure for “TAAATATTTTTTTAGACACACATATATCTATGATAT [CACACA_site1107]”: 7.38 ± 0.49.
For the sequence “AAAAAAATAATTTGTAGTACGATTCAATGAAAAGGC [XGTACX_site1287]”, the “gcPBM binding intensity (ln)” value was determined as 8.14 ± 0.64.
As for “ATACATATATACATATGTACATATATATATATATAT [XGTACX_site8206]”, the “gcPBM binding intensity (ln)” value was found to be 9.15 ± 0.34.
The value for “TTTTTTCTTAAAGACATATATTTATTTGGTAAAACA [XGTACX_negctrl_site243]” was 7.5 ± 0.64; that for “GGATATAACAGACACACACACACATATAAATATATT [CACACA_site7866]” was 7.97 ± 0.55.
The same measure for “ATGCTATATTAAAAACGTACAAACTGTTTAGAAAAA [XGTACX_site8943]”: 8.04 ± 0.2; for “CAAAATAAAAATTAATGTACATAAAAAATGAATATA [XGTACX_site1085]”: 7.88 ± 0.59.
The same measure for “TATTTGTTTTTATATAGTACATAAATATATATATAT [XGTACX_site7834]”: 8.935 ± 0.021.
Consider “AAAATAAATATGAACACACACATTTATGCCTTTAAA [CACACA_site1271]”, for which the “gcPBM binding intensity (ln)” value stood at 7.62 ± 0.59.
The same measure for “AAAAAATAAATAAATACACACACACTAATATATATA [CACACA_site8488]”: 8.39 ± 0.57.
With “AGAGATATAAGAAAAGCACACACACCCAAAAAAAAA [CACACA_site8917]”, the “gcPBM binding intensity (ln)” value turned out to be 8.53 ± 0.41.
The value for “TATATACAAAAAATATGTACATATATATATATATAT [XGTACX_site3497]” was 9.36 ± 0.44; that for “TATATTATTTATTTTTGTACATATTATGAATGAATA [XGTACX_site3971]” was 7.73 ± 0.33.
On to “CTTCCTTCTAAATGCACACGGAAAGTATAAATGTAT [CACACA_site2501]”, for which the “gcPBM binding intensity (ln)” value worked out at 9.23 ± 0.27.
Turning to “TTACCTTTAAATGGATGTACAGAAATTTAAATTGTT [XGTACX_site7044]”, the “gcPBM binding intensity (ln)” value worked out at 7.7 ± 0.46.
The same measure for AAATAATTAGAAATAGTGCACATAATTAAGGGATAC: 11.5 ± 0.31; for “TAGAAATATATAAATTGTACATGTTTGTATAATATA [XGTACX_site2097]”: 7.84 ± 0.15.
The same measure for “TATATTATTTATTAGACACACATTATTAATATATTT [CACACA_site1078]”: 7.75 ± 0.19.
The value for “TGGATTTTGTATTAATGTACATATATATATATATAT [XGTACX_site4442]” was 9.45 ± 0.45; that for “CAGATAGACTTATATGCATGCATTCACATACCAACA [TGCATGCA_site163]” was 8.23 ± 0.66.
For the sequence “AACAACATTTTGTAATGTACATATTTACTTATATTC [XGTACX_site7251]”, the “gcPBM binding intensity (ln)” value is 7.65 ± 0.45.
The value for “CCTCTTAATATGTGCACACTAAATTATAACATAATT [CACACA_site3259]” was 10.48 ± 0.014; that for “TGAAAAGTAAAATACACACACATAATCTAATTTATA [CACACA_site7024]” was 7.56 ± 0.34; that for “GGTTAACATAAATATATACACACCAATGATGGCATT [CACACA_site1568]” was 7.82 ± 0.57.
Turning to “AAATATAAACTCAGCACACAAACATATATATGTCAT [CACACA_site4004]”, the “gcPBM binding intensity (ln)” value turned out to be 7.79 ± 0.59.
The same measure for “TTCTAATATTTACATAATATATAGAAATATAAAGGT [XGTACX_negctrl_site504]”: 7.8 ± 0.47; for “GTAGACATTATAATGGTGCAAAAAAATTAACAAAAA [GTGCAC_site9891]”: 10.9 ± 0.3; for “ATGGTATAAAAAAATACACACTTATATATATTCTTA [CACACA_site4427]”: 7.66 ± 0.38.
The value for “TTTTTTTTTTTTTCTCGTACAAAATAATACCTTTTT [XGTACX_site3867]” was 8.01 ± 0.54; that for “AGGGAATATTTTTATGCATGTGCTTACACATTACAA [TGCATGCA_site830]” was 8.12 ± 0.86.
For the sequence “AAAAAAAACGGACACACACACATACAAAATATATAT [CACACA_site4910]”, the “gcPBM binding intensity (ln)” value is 8.11 ± 0.49.
The same measure for “TAAAATTTTGTTTGTTGTACTTATTTTCGTGTCAAC [XGTACX_site8277]”: 8.03 ± 0.25.
Consider “AAAGATGAATTTTTTACACACACCATTTTATAATAT [CACACA_site3676]”, for which the “gcPBM binding intensity (ln)” value is 7.96 ± 0.61.
The same measure for “AAAAAAAAAAAAAAAAAAAAATATATATATATATAT [GTGCAC_negctrl_site426]”: 9.75 ± 0.2.
The same measure for “AAAAGTATAATAAATTGTACTAACAAATATTTATGT [XGTACX_site7721]”: 7.54 ± 0.47; for “TACTTATCGTTAAATTGTACTAAAAAATATTTTTCT [XGTACX_site4665]”: 7.67 ± 0.57; for “AATGTAAAACCTCCTACACACACCAATTAACTATTC [CACACA_site2112]”: 7.99 ± 0.44.
The value for “GCCATTGTACCATCCACACACATATATATCTGTATA [CACACA_site5490]” was 8.54 ± 0.7.
In the case of “TTATAATAAAAGGCTTTACAATTATTAAACAAATAA [GTGCAC_negctrl_site480]”, the “gcPBM binding intensity (ln)” value turned out to be 7.46 ± 0.57.
The value for “AAAAAAGAAGAGCACACACACATATATAAATATAAA [CACACA_site631]” was 8.135 ± 0.078; that for “TGGTATTAAGGAGAGGGTACAAAAAAAAAAAAAAAA [XGTACX_site1668]” was 8.15 ± 0.57.
The value for “TTTTTTTTTTTAAATACATGCATGTCCTATTTAAAT [TGCATGCA_site494]” was 7.92 ± 0.89; that for TTTTTTTGATAAAAGGTGCTACAAGATGAATACATA was 8.9 ± 0.25.
For the sequence “ATAAATAAAAAAAAAAAAAAAAAAAAAAAAAAAATA [CACACA_negctrl_site1064]”, the “gcPBM binding intensity (ln)” value was determined as 7.53 ± 0.37.
In the case of “GTTGTATAAAATAATACATGCATGTCCTACATATAT [TGCATGCA_site162]”, the “gcPBM binding intensity (ln)” value was 8.01 ± 0.59.
The value for “GTAATATATTTTTATGGTACACGAACTAGCCAAAAA [XGTACX_site6307]” was 7.95 ± 0.4.
The same measure for “CCGCATTTTACAGACACACACAATTTATATTACGGT [CACACA_site6974]”: 7.88 ± 0.47; for “AGTAATAACTATATATGTACATATATATATTATTAG [XGTACX_site1113]”: 7.66 ± 0.47; for “TAATATATTTATAAGTGTACACATTATATAAATCCC [XGTACX_site8875]”: 8.1 ± 0.13.
